Where “and” joins values, the source holds several entries; their conditions need not be identical. Equal entries are not always repeated. The list shows a part of the results. The main result of the screen is listed elsewhere. These columns were measured beside it and carry no call.
Assays:
Assay in all cases: Primary Screen for Target Class Profiling of Small Molecule Inhibitors of Methyltransferases
[1] = target: Glycine N-methyltransferase (Homo sapiens) (UniProt Q14749); settings: purified enzyme, MTase-Glo SAH luminescence; measured here: GNMT inhibition; at 40 µM; stronger effect = lower value
Procedure, shortened: (§1)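 Each enzyme was assayed with SAM and its substrate. SAH formation detected by MTase-Glo luminescence; single-point 40 uM screen[…].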

[2] = target: Guanidinoacetate N-methyltransferase (Homo sapiens) (UniProt Q14353); settings: purified enzyme, MTase-Glo SAH luminescence; measured here: GAMT inhibition; at 40 µM; stronger effect = lower value
Procedure, shortened: as §1

[3] = target: Histamine N-methyltransferase (Homo sapiens) (UniProt P50135); settings: purified enzyme, MTase-Glo SAH luminescence; measured here: HNMT inhibition; at 40 µM; stronger effect = lower value
Procedure, shortened: as §1

[4] = target: Nicotinamide N-methyltransferase (Homo sapiens) (UniProt P40261); settings: purified enzyme, MTase-Glo SAH luminescence; measured here: NNMT inhibition; at 40 µM; stronger effect = lower value
Procedure, shortened: as §1

[5] = target: Phenylethanolamine N-methyltransferase (Homo sapiens) (UniProt P11086); settings: purified enzyme, MTase-Glo SAH luminescence; measured here: PNMT inhibition; at 40 µM; stronger effect = lower value
Procedure, shortened: as §1
% is set by controls: 0 for no effect and ±100 for the full control effect.

Compound | activity change, negative = inhibition [1] [%] | activity change, negative = inhibition [2] | activity change, negative = inhibition [3] [%] | activity change, negative = inhibition [4] | activity change, negative = inhibition [5]
CCC1(O)CCC12CCN(C(=O)C1CCCC1)CC2 (configuration not stated) | -3.52 | -5.89% | -1.95 | -6.57% | 2.45%
COc1ccc(C(=O)O[C@H]2C=COC=C3C=C4C(=O)N(C)C(=S)C(=O)N4[C@@H]32)cc1Oc1cc(C=O)ccc1O | 4.16 | 8.58% | 10 | -4.57% | 6.09%
CC(C)NC(=O)c1nc(-c2ccc([S+](C)(=O)[O-])cc2)c2ccccn12 | -3.56 | -2.08% | -1.25 | -1.6% | -4.79%
CC1(C(=O)NC2CCCCCCC2)Cn2c(cc3occc32)C(=O)N1c1cccc(F)c1 (configuration not stated) | 2.27 | -6.03% | 6.37 | -0.778% | 2.69%
CC1(C(=O)NC2CCCCCC2)Cn2c(c(-n3cccc3)c3ccccc32)C(=O)N1CC1CCCO1 (configuration not stated) | 1.35 | 2.33% | 7.7 | -36.1% | 2.62%
COc1ccccc1NC(=O)Cn1nc2n(Cc3ccccc3)c(=O)c3ccccc3n2c1=O | 1.65 | 0.058% | 4.32 | -1.99% | -0.376%
Cn1c(=O)c2ccc(C(=O)NC3CCCC3)cc2n2c(=O)n(Cc3ccc(N4CCCC4=O)cc3)nc12 | -3.65 | -3.84% | 6.44 | -4.97% | -4.91%
COc1ccc(-c2cn3c(n2)CO[C@@H](CNC(=O)CCC(=O)O)C3)cc1 | -1.25 | 3.38% | -1.15 | -5.46% | -5.88%
Cn1nnnc1SCCNCc1ccc2c(c1)n(C)c(=O)n2C | 0.876 | 0.147% | 1.27 | 4.96% | -1.18%
Cc1ccc(CN2C(=O)c3cc4ccccc4n3CC2(C)C(=O)NCCCOC(C)C)cc1 (configuration not stated) | 2.2 | 1.73% | 3.47 | 8.66% | -1.68%
Cc1c(F)ccc(C(=O)Nc2cc([N+](=O)[O-])ccc2N2CCN(C)CC2)c1Cl | 2.15 | 0.454% | 4.33 | -13.6% | -4.86%
COc1ncccc1-c1nc(-c2c(C)noc2C)cc2cc(CN(C)C)oc12 | -3.72 | -3.3% | -2.09 | -8.35% | -3.58%
CC(C)n1cnc2c(-c3cnc(N)nc3)nc(N3CCOCC3)nc21 | 8.08 | 4.66% | 12 | -2.73% | 9.21%
CCOC(=O)c1cc2n(n1)CC(C)(C(=O)NC1CCCC1)N(c1ccc(OC)cc1)C2=O (configuration not stated) | -0.229 | 2.66% | -2.28 | 2.25% | -1.67%
CCC1CN(S(=O)(=O)c2ccc3[nH]c4c(c3c2)CCCC4)c2cc(C)ccc2O1 (configuration not stated) | 4.96 | 2.43% | -2.67 | -5.84% | 2.57%
CCc1ccccc1Nc1nn2c(=O)c3ccc(C(=O)NC4CCCCC4C)cc3nc2s1 (configuration not stated) | 4.13 | 0% | 2.38 | -1.86% | 1.89%
CC(C)Cn1c(=O)c2ccc(C(=O)NC3CCCCC3)cc2n2c(=O)n(Cc3ccc(F)cc3)nc12 | 6.19 | 1.82% | 4.99 | 6.98% | 1.69%
Cc1ccc(-c2cc3c(=O)n(CCNC(=O)c4cc(F)ccc4F)ccn3n2)c(C)c1 | 1.05 | 1.99% | 1.48 | 4.52% | 0.471%
CC(C)CCNC(=O)CCc1nnc2n(CCCOC(C)C)c(=O)c3ccccc3n12 | -6.34 | 0.522% | 3.61 | 0.923% | -3.38%
O=C(Nc1cccc(C(F)(F)F)c1)N[C@H]1[C@H](O)[C@@H](Oc2ccccc2)[C@@H]2OC[C@H]1O2 | -3.87 | 5.71% | 2.49 | -8.03% | 3.04%

Compound | activity change, negative = inhibition [1] [%] | activity change, negative = inhibition [2] | activity change, negative = inhibition [3] [%] | activity change, negative = inhibition [4] | activity change, negative = inhibition [5]
CC1CCC(NC(=O)C2(C)Cn3c(nc4ccccc43)C(=O)N2Cc2cccnc2)CC1 (configuration not stated) | -0.469 | 1.51% | -2.62 | -3.09% | -5.58%
Cc1csc(CN(C)C(=O)CC(c2ccccc2)c2ccc3c(c2)OCO3)n1 (configuration not stated) | -4.95 | -1.36% | 0.415 | -8.82% | 2.72%
COc1ccc(CN2CCCCC23Cc2ccccc2CN(C(C)=O)C3)cc1 (configuration not stated) | -2.69 | 0.333% | -0.995 | -1.93% | -0.817%
CCN(CC)CCCNC(=O)c1cc2n(n1)CC(C)(C(=O)NC1CCCCC1)N(C)C2=O (configuration not stated) | 5.71 | 0% | 3.57 | 11.1% | 3.85%
O=C(O)CCn1ncc2cc(OCC3CCN(c4ncc(F)cn4)CC3)ccc21 | -13 | -8.98% | -5.25 | -19.1% | 7.54%
c1ccc(Nc2cc3c(cn2)NCCN(Cc2cccs2)C3)cc1 | -16.8 | -3.21% | -14.7 | -14% | -19.5%
O=S(=O)(c1ccccc1)N(CC(F)(F)F)c1ccc(C(O)(C(F)(F)F)C(F)(F)F)cc1 | -1.17 | 4.24% | 12.3 | -3.77% | 6.35%
COc1ccc(C(=O)Cn2nc3n(C(C)C)c(=O)c4ccc(C(=O)NC5CCCCC5)cc4n3c2=O)cc1 | 4.86 | 0% | 8.09 | 6.24% | 3.74%
CC#CC(=O)Nc1ccc2ncnc(Nc3cccc(Br)c3)c2c1 | -0.01 | -23.7% | -2.09 | -34.8% | -17.4%
COc1ccc(OC)c(S(=O)(=O)N2CCC3(CC2)CC(CC(=O)N2CCOCC2)CCO3)c1 (configuration not stated) | -1.13 | 0% | 1.03 | -1.08% | -0.698%
Cc1ccc(CN2CCn3c(nn(-c4ccncc4)c3=O)C2)cc1 | -6.23 | -10.5% | -6.76 | -6.69% | -3.25%
CCC(C(C)O)n1ncn(-c2ccc(N3CCN(c4ccc(OCC5COC(Cn6cncn6)(c6ccc(F)cc6F)C5)cc4)CC3)cc2)c1=O (configuration not stated) | -0.489 |  | 3.63 |  | 
CC1CCC(NC(=O)C2(C)Cn3c(cc4occc43)C(=O)N2CCN(C)C2CCCCC2)CC1 (configuration not stated) | 2.34 | 0.51% | 1.24 | 9.88% | -0.822%
O=C(Nc1ccccc1)N1CCC(N2CCCNC2=O)CC1 | -4.79 | -5.86% | -3.17 | -12.4% | -7.24%
CC(C)Cn1c(=O)c2ccccc2n2c(SCC(=O)Nc3ccc(Cl)cc3)nnc12 | -4.47 | -0.083% | 1.07 | -6.76% | -1.54%
COc1cc2nc(-c3ccc(N4CCN(C)CC4)cc3)nc(NCCN3CCOCC3)c2cc1OC | -6.31 | -15.2% | -12.3 | -21.8% | -3.94%
Cn1c(=O)n(C)c2cc(S(=O)(=O)N3CCN(c4ccc(Cl)cc4)CC3)ccc21 | 3.26 | 0% | -1.17 | -3.23% | -0.51%
Cc1ccc(N2C(=O)CSc3c(c4ccccc4n3C)C2C(=O)NCc2ccccc2)cc1Cl (configuration not stated) | 11.5 | 1.73% | 4 | 0.831% | 6.41%
NC(CCCP(=O)(O)O)C(=O)O (configuration not stated) | 5.86 | 15.6% | 10.5 | -1.09% | 3.04%
CCCCN1C(=O)c2cc(C(=O)Nc3ccccc3C)nn2CC1(C)C(=O)NC1CCCC1 (configuration not stated) | -1.18 | 0% | -9.67 | 1.14% | 0.323%

Compound | activity change, negative = inhibition [1] [%] | activity change, negative = inhibition [2] | activity change, negative = inhibition [3] [%] | activity change, negative = inhibition [4] | activity change, negative = inhibition [5]
O=C(O)c1cc(-c2c(-c3ccccc3)nn3ccccc23)n[nH]c1=O | -7.68 | 3.93% | -4.64 | -14.3% | -5.68%
CN(CCc1cn[nH]c1)C(=O)C1CCN(C(=O)C2CCC2)CC1 | -0.411 | -2.98% | -0.335 | 1.95% | -0.91%
CC(C)Oc1ccc(C(=O)N2Cc3cnn(Cc4ccc(F)cc4)c3C2)cc1 | -2.94 | 2.73% | 0.072 | -12% | -4.71%
CN(Cc1cn(-c2ccccc2)nn1)Cc1noc2c1CCCC2 | -5.28 | -7.62% | -1.59 | -4.88% | -8.79%
CCCn1c(=O)c2ccccc2n2c(=O)n(CC(=O)NCc3ccc(C)cc3)nc12 | -0.093 | 1.69% | 2.76 | 0.049% | 4.46%
Cn1cccc1CN1C[C@@H](CO)[C@H](c2ccncc2)C1 | -4.72 | -1.68% | -11.8 | 0.688% | -1.44%
COc1cc(F)c(F)c(Nc2ccc(I)cc2F)c1NS(=O)(=O)C1(C[C@H](O)CO)CC1 | -14.3 | -4.27% and 14.3% | 10.1 | -17.4% and -6.25% | 1.59% and 9.39%
CC(C)(C)NCC(O)COc1cccc2c1CCCC2=O (configuration not stated) | 9.13 |  | -9.17 |  | 
CCOCCCN1C(=O)c2cc3occc3n2CC1(C)C(=O)NC1CCC(C)CC1 (configuration not stated) | -2.24 | 4.2% | 3.77 | 3.89% | -2.23%
O=C(NCc1ccccc1)c1ccc(-c2ccc(N3CCSCC3)nc2)cc1 | -6.07 | -8.58% | -4.75 | -3.7% | -1.54%
CCCn1c(=O)c2cc(Cl)ccc2n2c(SCC(=O)NCc3ccccc3Cl)nnc12 | -3.4 | -11.2% | 1.62 | -8.86% | -4.69%
COc1ccc(CN2C(=O)c3cc(-c4ccc(OC)cc4)nn3CC2(C)C(=O)NCc2ccccc2OC)cc1 (configuration not stated) | 3.48 | 5.94% | 5.68 | -0.59% | -1.15%
CN[C@@H]1[C@@H](O)[C@@H](O[C@@H]2[C@@H](O)[C@H](O[C@H]3O[C@H](CN)[C@@H](O)[C@H](O)[C@H]3O)[C@@H](N)C[C@H]2NC(=O)[C@@H](O)CN)OC[C@]1(C)O | 26.8 | 2.34% | 2.2 | -9.56% | 0.363%
O=C(Cn1ccc2cc(S(=O)(=O)N3CCCCC3)ccc21)N1CCN(c2ccccn2)CC1 | -0.252 | 0.184% | 4.33 | -2.48% | 2.11%
CC1=CC(=O)CC(C)(C)C1CCC(C)O[C@@H]1O[C@H](CO)[C@@H](O)[C@H](O)[C@H]1O (some centres not stated) | -5.04 | -7.61% | -1.4 | -16% | -2.49%
CCCN1C(=O)c2c(C(=O)NCc3ccc(N(C)C)cc3)ncn2CC1(C)C(=O)NCc1ccc(OC)cc1 (configuration not stated) | -1.12 | 5.21% | -1.38 | 3.04% | 1.9%
CCNC(=O)N1CC[C@H]2CC(=O)N([C@H](C(N)=O)C(C)C)CC[C@H]2C1 | -4.15 | -0.044% | -0.404 | 0.329% | 2.52%
CN1C[C@H](O)C[C@H]1c1nnc2n1CCN(C(=O)Cc1cccc(F)c1)CC2 | -0.005 | 3.59% | 2.18 | -0.133% | -8.8%
Cc1ccc(NS(=O)(=O)c2cc3c(cc2N[C@@H](C)CO)NC(=O)CC3)cc1Cl |  | -3.46% |  | -18.9% | -10.4%
C=CC(C)(CC/C=C(\C)C(=O)OC)OC1OC(COC(=O)CC(C)(O)CC(=O)O)C(O)C(O)C1O (configuration not stated) | -0.401 | 1.44% | 2.8 | -10.9% | 3.73%

— PubChem BioAssay AID1745853 (National Center for Advancing Translational Sciences (NCATS), 2022)
